Reference: the supplement of paper PMC3334620
In all, about 33,000 sequences were measured (“E-score (-0.5 to 0.5)”: median about -0.012, highest 2% from about 0.27 on). Some of the results follow.

Each sequence was assayed against T1, Vhr1 (UniProt P40522) (assay: PBM E-score (8-mer binding enrichment) (E-score (-0.5 to 0.5)); higher = stronger / more preferred TF binding; most listed sequences are background and not binding sites). Details: protein concentration: 200 nM; construct: GST-full length.
T1 sequence: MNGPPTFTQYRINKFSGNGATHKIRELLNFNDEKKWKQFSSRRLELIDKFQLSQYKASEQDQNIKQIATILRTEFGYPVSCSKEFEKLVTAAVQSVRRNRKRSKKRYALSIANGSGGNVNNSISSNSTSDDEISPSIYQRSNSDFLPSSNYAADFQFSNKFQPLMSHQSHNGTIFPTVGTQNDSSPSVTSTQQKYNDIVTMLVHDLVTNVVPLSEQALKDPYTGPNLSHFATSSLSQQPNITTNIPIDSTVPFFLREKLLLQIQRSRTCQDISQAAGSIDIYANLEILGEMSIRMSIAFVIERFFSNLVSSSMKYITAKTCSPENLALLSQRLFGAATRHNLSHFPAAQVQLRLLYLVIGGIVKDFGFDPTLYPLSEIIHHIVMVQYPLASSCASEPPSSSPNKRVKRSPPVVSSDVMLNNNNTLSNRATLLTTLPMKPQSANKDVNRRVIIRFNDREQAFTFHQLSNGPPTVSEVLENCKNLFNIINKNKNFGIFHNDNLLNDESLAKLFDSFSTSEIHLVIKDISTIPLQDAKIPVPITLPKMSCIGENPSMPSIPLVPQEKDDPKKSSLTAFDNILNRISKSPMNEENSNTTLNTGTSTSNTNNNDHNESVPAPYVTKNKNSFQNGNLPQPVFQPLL
Method in brief: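 Yeast transcription factors carrying a GST tag, as full-length proteins or DNA-binding domains, were produced by PURExpress in vitro transcription/translation. About 100-200 nM protein was applied to universal all-10-mer Agilent arrays, double-stranded by primer extension on fresh or once-stripped slides. Bound protein was detected with fluorescent anti-GST, and scans were normalised with masliner. The Universal PBM Analysis Suite gave each ungapped eight-base word, pooled with its reverse complement, an E-score, a modified Wilcoxon-Mann-Whitney statistic.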

Row | Sequence | PBM E-score
1 | ACGAAAAA | -0.246
2 | CCGGCACG | 0.132
3 | GGGTCCCA | -0.021
4 | CGGCTAAG | -0.093
5 | AAAGCTAG | -0.179
6 | CTCGAGGC | 0.153
7 | CGAAGCCC | -0.0753
8 | GGCCACAA | 0.0566
9 | AAGCAGTG | 0.055
10 | GAAACGGA | -0.0114
11 | CGCAGGCC | -0.0947
12 | CGCAGCGA | 0.201
13 | CGCGCGTC | 0.117
14 | ATTGTCGC | -0.012
15 | ATATGAGG | 0.178
16 | AGGTGACG | -0.0476
17 | AAGAGTCG | 0.281
18 | CCCGAGAA | -0.0627
19 | ATTGAACA | -0.0184
20 | ATACCCAG | 0.062
21 | CACGTCAC | -0.102
22 | GGGATCCA | 0.0018
23 | CGTGTAGA | 0.00263
24 | CAATATAA | 0.12
25 | TGCGAGCA | 0.116

Row | Sequence | PBM E-score
26 | CGTACGGC | -0.258
27 | ATATAACG | 0.105
28 | ACTGTATG | 0.132
29 | CGGCCAGA | -0.0329
30 | ACGGCTAG | -0.243
31 | GGTGACTA | 0.44
32 | CCTGATGC | -0.0265
33 | AACCCATT | 0.0791
34 | CGAAATCG | -0.0613
35 | CTTAGATC | -0.106
36 | CTGAACAA | 0.0457
37 | CCTCCGAG | 0.0635
38 | TGCAAGAA | -0.177
39 | GAATGGAA | -0.0445
40 | GGATCGGA | -0.0891
41 | AAGGGTAA | 0.135
42 | GATGGTCA | -0.0152
43 | AAATCAGG | 0.0111
44 | CCAGAGGA | -0.0619
45 | ACACGAGG | -0.197
46 | CCGAACGC | 0.106
47 | AACGCGTG | -0.0141
48 | CTTCCTCC | -0.247
49 | AGGTTCAG | -0.0158
50 | CTTAAAAA | -0.231

Row | Sequence | PBM E-score
51 | AAGTCACC | 0.301
52 | CTAAGCTA | -0.0723
53 | ACTGCTCC | 0.0624
54 | AGTCGGGC | 0.145
55 | GGAGCTGA | 0.00933
56 | CGCGCCGC | 0.177
57 | CATGGACG | 0.0438
58 | CTGTGCCA | -0.0519
59 | CGCTCCCG | -0.0474
60 | ACCAACCC | 0.0128
61 | ACGTCGGA | -0.0862
62 | ACAGCTGA | 0.0324
63 | AGAATTAT | 0.0241
64 | ACCGTGCT | -0.11
65 | GGACCGCC | -0.14
66 | CGCTCGAC | -0.167
67 | TCGGATCA | 0.0704
68 | CTCCTGAC | 0.142
69 | CAGGTATG | 0.205
70 | AGTATTGG | 0.1
71 | CAGTAAGG | -0.259
72 | CTTAGCGC | 0.128
73 | AAACGAAT | -0.044
74 | AGAACGAC | 0.00162
75 | AAAGTCAC | 0.246

Row | Sequence | PBM E-score
76 | CCACATAG | 0.102
77 | TCACTACA | 0.141
78 | CCCCCTAA | -0.331
79 | AAAAAGCA | -0.147
80 | GAGTTCAC | 0.0628
81 | TACCAATA | 0.171
82 | AAAGGATG | 0.0615
83 | CTGCTAAA | -0.251
84 | GCGGGACA | 0.0204
85 | AGTTACAT | -0.043
86 | CGTGGCGC | -0.0549
87 | AGCGTCTG | -0.0399
88 | ACCCTTAG | 0.00115
89 | TATTCAGA | 0.178
90 | ATCGTTCC | -0.169
91 | AAACGTAA | -0.0983
92 | ATATCACA | -0.0613
93 | AGATGGTA | 0.0225
94 | CAAGGGAC | -0.219
95 | CACGGGTA | 0.0278
96 | ACCTAGGG | -0.129
97 | CTTTCGAA | -0.312
98 | ATAGGTAC | 0.0378
99 | AGACCATG | 0.188
100 | GTTAGAGA | -0.136

Row | Sequence | PBM E-score
101 | AATTCCCA | -0.294
102 | CTCTACTC | -0.0973
103 | AAACTAGA | -0.127
104 | AGAACTTA | -0.226
105 | CAGCCAAG | -0.0618
106 | AACTGGGG | -0.0107
107 | ATGTAACG | 0.012
108 | AAAGACAC | 0.0487
109 | ATACTACC | 0.0318
110 | CCCTTTCG | -0.113
111 | AACTTCAC | -0.164
112 | AGGCTAGC | -0.175
113 | AGTTCTAG | -0.127
114 | AGTCATAG | 0.407
115 | TAAGAGAA | -0.285
116 | TGAACACA | 0.0277
117 | GATGGCTA | 0.166
118 | CGAACAAC | 0.00816
119 | ATAATACA | 0.277
120 | CGTCAGCC | 0.044
121 | GATGAACC | 0.215
122 | ATAGTCCG | -0.0873
123 | GATGGGCC | -0.117
124 | AGAGAGGA | -0.0961
125 | ATTTCTGC | -0.0589

Row | Sequence | PBM E-score
126 | CTTAAGCA | -0.134
127 | GCCGTACA | 0.064
128 | CCCGCATA | 0.208
129 | AAAGAGTT | -0.125
130 | AAACAACC | -0.0239
131 | GTTAGAAA | -0.161
132 | CCGCCAAC | 0.163
133 | GTGAGAAA | -0.189
134 | CCACGGGG | 0.105
135 | ACCGGTAA | -0.011
136 | GTGTCGTA | 0.257
137 | GAGGAGGA | -0.0769
138 | CCCTGCCG | -0.0838
139 | AATTATTG | -0.0419
140 | CTCTCAGA | -0.297
141 | ACTCGTGG | 0.124
142 | CAGATAAC | 0.132
143 | ACCGTTAG | -0.144
144 | AGCCAATG | 0.117
145 | AATATGAC | 0.265
146 | CCTATTAA | -0.142
147 | CGGACAGA | -0.0387
148 | GTGCGTCA | -0.0481
149 | CAACTAGC | 0.131
150 | CTTTTAAC | -0.314

Row | Sequence | PBM E-score
151 | GTGCCGTA | 0.0336
152 | GGTACGCA | 0.101
153 | TAGATTCA | -0.0459
154 | CCCGGACA | 0.00629
155 | ATCCAGCC | 0.00924
156 | CTTATGTA | -0.0772
157 | TAACGTAA | -0.0343
158 | ACACGCGA | 0.131
159 | AGACTGAA | -0.0932
160 | CCCGTTCG | -0.0578
161 | ACCTCCAT | 0.0255
162 | AACTTGGT | 0.0366
163 | AAAGTCCG | -0.264
164 | ACGCCTAG | -0.22
165 | AAACGGTT | -0.184
166 | CGGGTCAC | 0.185
167 | CGTATCAG | 0.103
168 | AGAATCGA | -0.13
169 | CACGAGAC | 0.175
170 | CCGAACTA | 0.0691
171 | ATTCAGAG | 0.118
172 | GTCGGTCA | -0.0541
